PubChem BioAssay (NCATS)
The inconclusive results got no clear call from the source. Potencies beside an inconclusive call are fits to weak or partial responses and may not hold up.

target: DNA polymerase eta (Homo sapiens) (UniProt Q9Y253); assay: qHTS for Inhibitors of Polymerase Eta: Confirmatory Assay for Cherry-picked Compounds (AID 720502); conditions: Pol eta primer extension, TAMRA/BHQ fluorescence, 10 min
Method in brief: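 Strand-displacement fluorescence (525 nm excitation, 598 nm emission) was read kinetically at 0 and 10 min after adding 50 nM final TAMRA-reporter/BHQ-2-template substrate. Beforehand, 10 nM Pol eta had been exposed to compound for 15 min at room temperature.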
Potency is the fitted concentration of half-maximal effect; tags give direction and shape of the fitted curve.

Chain of UniProt Q9Y253 (Q9Y253 whole entry, looked up): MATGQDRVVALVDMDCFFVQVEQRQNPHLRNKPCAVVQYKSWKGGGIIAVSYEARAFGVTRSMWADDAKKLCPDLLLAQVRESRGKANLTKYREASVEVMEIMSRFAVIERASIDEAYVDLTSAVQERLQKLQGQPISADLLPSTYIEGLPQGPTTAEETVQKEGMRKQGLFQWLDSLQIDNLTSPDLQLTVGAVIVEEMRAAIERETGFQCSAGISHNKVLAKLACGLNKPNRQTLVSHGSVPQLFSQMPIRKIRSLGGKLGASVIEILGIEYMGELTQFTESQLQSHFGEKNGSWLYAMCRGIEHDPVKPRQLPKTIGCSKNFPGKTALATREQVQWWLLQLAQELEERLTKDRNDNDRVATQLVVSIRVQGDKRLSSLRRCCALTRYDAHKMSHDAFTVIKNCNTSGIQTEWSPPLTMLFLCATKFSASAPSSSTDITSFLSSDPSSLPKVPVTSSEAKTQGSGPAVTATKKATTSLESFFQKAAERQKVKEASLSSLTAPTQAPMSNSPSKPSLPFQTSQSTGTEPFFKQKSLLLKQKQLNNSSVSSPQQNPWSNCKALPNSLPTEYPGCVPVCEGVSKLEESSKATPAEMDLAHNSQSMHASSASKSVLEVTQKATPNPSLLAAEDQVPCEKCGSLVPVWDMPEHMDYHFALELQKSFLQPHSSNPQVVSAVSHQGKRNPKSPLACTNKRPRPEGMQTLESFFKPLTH

Potency, inconclusive:
O=C(O)CCCNc1cc(N2CCN(C3CCCCC3)CC2)c2noc3c2c1C(=O)c1ccccc1-3 84.9 µM [inhibitor, single point]
CC(=O)N(\C=C/C=C/C=C1\Sc2ccccc2C1=O)c1ccccc1 95.3 µM [inhibitor, single point]
CC(=O)Nc1ccc(-n2nnnc2SCC(=O)Nc2cccc(NC(=O)c3ccco3)c2)cc1 75.7 µM [inhibitor, partial curve]
CCOC(=O)C1=C(COC(=O)c2ccc([N+](=O)[O-])s2)NC(=O)NC1C (centres undefined) 75.7 µM [inhibitor, single point]
